Values joined by “and” are separate entries in the source; they are usually repeats but may differ in a detail not shown here. Equal values may be shown once. The whole screen tested about 420,000 compounds, of which about 50,000 (12%) were called active. This list was built around the results that the source calls inconclusive (neither active nor inactive); the mix of calls is not that of the screen. The call rests on the fitted dose curve; in most records, active means well fitted inhibition curve with a large enough effect; inconclusive means small, poorly fitted or top-dose-only effect; inactive means flat fitted curve, though single readings scatter. Potencies beside an inconclusive call are fits to weak or partial responses and may not hold up.
Experiment: qHTS for Inhibitors of human tyrosyl-DNA phosphodiesterase 1 (TDP1): qHTS in cells in presence of CPT; further: nearly all actives have a fitted effect of over 55% in size
Details: chicken DT40 Tdp1-/-;hTDP1 cells + 20 nM CPT, ATP luminescence, 48 h; activity change, negative = growth inhibition: at 46.2 µM (top of the series)
How it was run: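 Chicken DT40 Tdp1-/- cells stably complemented with human TDP1 were seeded at 400 cells/well in medium containing 20 nM camptothecin, exposed to pin-transferred compounds, and grown at 37 °C for at least 48 hr. Viability was read as ATP luminescence.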
With `CCN1C[C@@H]2[C@@H]3C(=O)N(C)C(=O)[C@@H]3[C@](Cc3ccccc3)(C1=O)N2C(=O)c1ccc(F)cc1` the Potency was “inactive”.
In the case of `COc1ccccc1C(=O)Nn1cnc2ccccc2c1=O`, the Potency is reported as inconclusive: 25.9 µM [inhibitor, single point].
With `COc1ccccc1N(C)S(=O)(=O)c1ccc(C(=O)NCC2CCCCC2)cc1` the Potency was inconclusive: 25.9 µM [inhibitor, single point].
In the case of `COc1cc(C(=O)O/N=C(\N)Cc2ccc([N+](=O)[O-])cc2)cc(OC)c1OC`, the Potency is reported as active: 3.66 µM.
In the case of `COc1ccccc1NS(=O)(=O)c1ccc(C)c(C(=O)NCC(c2ccco2)N2CCCCC2)c1` (stereo not given), the Potency is reported as inconclusive: 29.1 µM [inhibitor, single point].
In the case of `CCc1nc2cccnc2n1-c1ccc(CC(=O)Nc2c(C)cccc2C)cc1`, the Potency is reported as inconclusive: 29.1 µM [inhibitor, single point].
In the case of `Cc1c(Cl)cccc1NC(=O)Cn1c(CCC(=O)O)ccc1-c1ccccc1`, the Potency is reported as inconclusive: 20.6 µM [inhibitor, single point].
In the case of `Cn1c(=O)c2cc(NC(=O)CCc3cccnc3)ccc2n1Cc1cccc(C(F)(F)F)c1`, the Potency is reported as inconclusive: 20.6 µM [inhibitor, single point].
In the case of `COc1ccc(C(NC(=O)C2CCN(CCOc3ccc(Cl)cc3)CC2)c2cccs2)cc1` (stereo not given), the Potency is reported as inconclusive: 29.1 µM [inhibitor, single point].
With `O=C1C2C3C=CC(C3)C2C(=O)N1c1ccc(-c2nc3ccccc3o2)cc1` (stereo not given) the Potency was “inactive”.
In the case of `C=CCn1c(NCCOC)nc2c1c(=O)n(C)c(=O)n2C`, the Potency is reported as “inactive”.
With `O=C(Nc1ccc(-c2nc3cc(NC(=O)c4cccs4)ccc3o2)cc1)c1cccs1` the Potency was active: 11.2 µM.
For `CCOc1ncccc1C(=O)NCc1ccc(OC)cc1`, the Potency was active: 16.4 µM.
For `CCOC(=O)c1c(C)[nH]c(/C(C)=N/O)c1C`, the Potency was “inactive”.
For `Cc1cc2cc(C)c3nnc(SCc4ccccn4)n3c2cc1C`, the Potency was active: 23.1 µM.
With `Cc1ccc(-n2nc(C)c(Sc3ccccc3[N+](=O)[O-])c2N)cc1` the Potency was inconclusive: 18.4 µM [inhibitor, partial curve].
For `COc1ccc(N2CC(O)=C(c3nc(-c4ccc(F)cc4)cs3)C2=N)cc1Cl`, the Potency was inconclusive: 20.6 µM [inhibitor, partial curve].
For `Cn1c(=O)n(C)c2cc(NC(=O)CCc3ccccc3)c(Br)cc21`, the Potency was inconclusive: 9.2 µM [inhibitor, partial curve].
For `COc1cc(Br)cc(CNc2ccc(F)c([N+](=O)[O-])c2)c1O`, the Potency was inconclusive: 23.1 µM [inhibitor, single point].
For `CC(C)C[C@H]1CN=C(Nc2ccccc2)N1CCc1cccc(F)c1`, the Potency was active: 10.3 µM.
For `CN(C)C(=S)Oc1ccccc1-c1ccccc1OC(=S)N(C)C`, the Potency was inconclusive: 20.6 µM [inhibitor, single point].
In the case of `CCN(CC)CCCNC(=O)c1[nH]c2ccccc2c1Sc1ccc(Cl)cc1`, the Potency is reported as inconclusive: 18.4 µM [inhibitor, single point].
In the case of `O=C(NC(=S)Nc1ccccc1Br)C1CCC1`, the Potency is reported as “inactive”.
For `O=C(CCc1c[nH]c2ccccc12)NC1CC1`, the Potency was “inactive”.
In the case of `COc1cc(OC)c(OC)cc1CNC(=O)c1cc(S(=O)(=O)N(C)c2ccccc2OC)ccc1C`, the Potency is reported as inconclusive: 20.6 µM [inhibitor, single point].
For `CCn1c(COc2cccc(OC)c2)nnc1SCC(=O)Nc1ccccc1C(=O)OC`, the Potency was inconclusive: 29.1 µM [inhibitor, single point].
In the case of `O=c1ccn(-c2cccc(C(F)(F)F)c2)nc1-c1ccn(-c2ccccc2F)n1`, the Potency is reported as inconclusive: 0.461 µM [inhibitor, full curve, poor fit].
For `Cc1nn(-c2ccccc2)c(C)c1C(=O)OCC(=O)NC(=O)NC1CCCCC1`, the Potency was inconclusive: 29.1 µM [inhibitor, single point].
For `CCCCN(CC)C(=O)c1cc2c(=O)n3cccc(C)c3nc2s1`, the Potency was inconclusive: 29.1 µM [inhibitor, single point].
For `Cc1cc(C)cc(NC(=O)CCC(=O)N2CCSc3ccccc32)c1`, the Potency was inconclusive: 20.6 µM [inhibitor, single point] and inconclusive: 23.1 µM [inhibitor, single point].
For `COc1ccc(-c2[nH]nc3c2C(c2ccsc2)C(C#N)=C(N)O3)cc1` (stereo not given), the Potency was inconclusive: 29.1 µM [inhibitor, partial curve].
For `COc1cc(NC(=O)CCC(=O)N2CCN(S(=O)(=O)c3ccc(C)cc3)CC2)cc(OC)c1`, the Potency was “inactive”.
In the case of `CCOC(=O)C1C(=O)NC(C)C1c1ccccc1` (stereo not given), the Potency is reported as “inactive”.
With `COc1ccc(-c2cc3nc(C)cc(N4CCN(C(=O)c5cccnc5)CC4)n3n2)cc1` the Potency was inconclusive: 16.4 µM [inhibitor, partial curve, poor fit].
With `CN(C)c1ccc(C(=O)N(Cc2ccccc2)Cc2ccccc2)cc1` the Potency was inconclusive: 18.4 µM [inhibitor, single point].
For `NS(=O)(=O)c1cccc(NC(=O)CSc2nc3ccccc3c(=O)n2Cc2ccco2)c1`, the Potency was inconclusive: 20.6 µM [inhibitor, single point].
With `CCN(C(=O)c1cc(S(=O)(=O)N2CCc3ccccc32)cn1C)c1ccccc1` the Potency was inconclusive: 32.6 µM [inhibitor, single point].
With `Cc1c(CNC(=O)c2c([N+](=O)[O-])cnn2C)cnn1C` the Potency was “inactive”.
With `CCOc1ccc(S(=O)(=O)N(C)c2ccc(OCC(=O)NCCc3ccc(OC)cc3)cc2)cc1` the Potency was active: 20.6 µM.
With `Cc1ccccc1NC(=O)CSc1nc2cc3c(cc2cc1C)CCC3` the Potency was active: 4.61 µM.
In the case of `CCCCCCCCS(=O)CCC(=O)O` (stereo not given), the activity change, negative = growth inhibition is reported as inconclusive: -32% [inhibitor].
For `COc1cc(Cl)c(C)cc1NC(=O)c1cnc(N2CCOCC2)c2ccccc12`, the Potency was active: 10.3 µM.
With `COc1ccc(-c2csc(C(C)(O)c3ccccc3)n2)cc1` (stereo not given) the Potency was active: 16.4 µM.
In the case of `COC(=O)CNC(=O)COc1ccccc1`, the Potency is reported as “inactive”.
For `COc1ccc(Nc2ncnc3c2cnn3-c2ccccc2)cc1OC`, the Potency was inconclusive: 29.1 µM [inhibitor, single point].
In the case of `COc1ccc(CN2CCCC(C(=O)N3CCCC3)C2)c(OC)c1` (stereo not given), the Potency is reported as “inactive”.
For `O=C(c1ccc2nc3ccccc3c(=O)n2c1)N1CCN(Cc2ccc3c(c2)OCO3)CC1`, the Potency was active: 29.1 µM.
With `O=C(Nc1ccc(Br)cc1)c1cccnc1N1CCCCC1` the Potency was inconclusive: 14.6 µM [inhibitor, partial curve].
With `Cc1ccc(S(=O)(=O)NCCc2csc(-c3cccc(F)c3)n2)cc1` the Potency was active: 20.6 µM.
For `Cc1cccc(COc2ccccc2/C=N/Nc2ccc([N+](=O)[O-])cc2)c1`, the Potency was inconclusive: 23.1 µM [inhibitor, partial curve].
For `CC(CCc1ccccc1)NC(=O)CNC(=O)c1ccccc1Br` (stereo not given), the Potency was “inactive”.
In the case of `CC(C)(C)Nc1nc(Oc2ccc(=O)n(-c3ccccc3)n2)nc(N2CCOCC2)n1`, the Potency is reported as inconclusive: 16.4 µM [inhibitor, single point].
With `Cc1ccc(Nc2ccc(N3CCN(C(=O)c4ccc([N+](=O)[O-])cc4)CC3)nn2)cc1` the Potency was inconclusive: 23.1 µM [inhibitor, single point].
For `Cc1cc(C(c2nnnn2Cc2ccccc2)N2CCOCC2)c(C)n1-c1ccc2c(c1)OCO2` (stereo not given), the Potency was inconclusive: 23.1 µM [inhibitor, single point].
In the case of `O=C(Nc1cccc([N+](=O)[O-])c1)c1ccc2snnc2c1`, the Potency is reported as “inactive”.
For `O=[N+]([O-])c1cccc(/C=N/NC2=NCCCCC2)c1`, the Potency was inconclusive: 29.1 µM [inhibitor, single point].
For `O=S(=O)(c1cccc(NC(=S)N2CCN(c3ccc(F)cc3)CC2)c1)C(F)F`, the Potency was inconclusive: 25.9 µM [inhibitor, single point].
For `Cc1ccc2nc(C3CCN(C(=O)c4ccco4)CC3)[nH]c2c1`, the activity change, negative = growth inhibition was inconclusive: -33.4% [inhibitor].
With `COc1ccc(-c2cc3nc(NCC4CCCCC4)n(C)c(=O)c3s2)cc1OC` the Potency was inconclusive: 25.9 µM [inhibitor, single point].
In the case of `COC(=O)c1c(NC(=O)c2ccco2)sc(C(=O)Nc2ccc(F)cc2)c1C`, the Potency is reported as inconclusive: 20.6 µM [inhibitor, single point].
With `O=C(Oc1ccccc1C(=O)Nc1ccccc1)c1ccc(Br)c([N+](=O)[O-])c1` the Potency was “inactive”.
In the case of `CCCCN(C=O)c1c(CC)nc2ccc(C(=O)N3CCN(c4ccccc4)CC3)cn12`, the Potency is reported as inconclusive: 23.1 µM [inhibitor, single point].
For `O=C(c1ccc(Nc2nc3ccccc3n3nnnc23)cc1)N1CCN(c2cccc(C(F)(F)F)c2)CC1`, the Potency was inconclusive: 18.4 µM [inhibitor, single point].
With `CCOC(=O)c1cccc(NS(=O)(=O)c2cc3c(cc2C)NC(=O)CO3)c1` the Potency was active: 18.4 µM.
With `O=c1[nH]c(=S)[nH]c2c1[C@H](CCc1cccc(Cl)c1)O[C@H](C1CC1)C2` the Potency was “inactive”.
With `COc1ccccc1NS(=O)(=O)c1cc(C(=O)N2CCCCCC2)ccc1C` the Potency was “inactive”.
With `O=C(CSc1n[nH]c(=O)n1C1CC1)Nc1ccccc1` the Potency was “inactive”.
In the case of `Cc1c(Cl)cccc1-n1ncc(C(=O)N2CCOCC2)c1C1CCN(C(=O)OC(C)(C)C)CC1`, the Potency is reported as inconclusive: 14.6 µM [inhibitor, single point].
For `COc1ccc(C(=O)c2[nH]c(N)c(C(=O)NCCc3c[nH]c4ccccc34)c2-c2ccc(Cl)c(F)c2)cc1`, the Potency was inconclusive: 29.1 µM [inhibitor, single point].
In the case of `COc1cc2c(cc1OC)C(Nc1ccc(S(N)(=O)=O)cc1)=NC(C)(C)C2`, the Potency is reported as inconclusive: 7.31 µM [inhibitor, partial curve].
On the % scale 0 is the no-effect control and ±100 the full control effect; potency means the concentration at half of the fitted maximal effect; tags describe the fitted curve by direction and shape.
